Laboratory results from the RNAGym collection of RNA variant scans (doi:10.1073/pnas.2313332121).
This sample is rich in variants without activity.

B1: TPR 5TU (parent)
chain: GGAUCUUCUCGAUCUAACAAAAAAGACAAAUCUGCCACAAAGCUUGAGAGCAUCUUCGGAUGCAGAGGCGGCAGCCUUCGGUGGCGCGAUAGCGCCAACGUUCUCAACUAUGACACGCAAAACGCGUGCUCCGUUGAAUGGAGUUUAUCAUG

Variants of: B1
Assay: polymerase ribozyme fitness, log enrichment relative to wild type (log ratio); higher = more active; in vitro selection for triplet polymerase activity
Method in brief: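 Streptavidin-bead capture of gel-excised extended constructs, followed by RT-PCR, closed a single triplicate in vitro selection round. That round began by annealing PCR-built, transcribed mutant libraries of each subunit of a heterodimeric triplet polymerase ribozyme with a biotinylated primer, the partner subunit and triplets, then incubating them frozen at −7 °C. After Illumina sequencing of inputs and outputs, genotypes needed ≥10 input reads and ≥1 read per output. Fitness is the base-2 logarithm of genotype enrichment over wild-type enrichment, using inverse-variance-weighted replicate averages.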

Variant | polymerase ribozyme fitness (log ratio)
U15G C57A C79A C85A C116G | ≤ -4.2
C14G A22C A52U C96A A97U G117U | ≤ -4.2
C14G A47C U53G C76G C99G | ≤ -4.2
C14U C38U G46C C54U U102G U109G U130A | ≤ -4.2
U15A A49U A73G U82G A107U | ≤ -4.2
C14G C38U A49C C75U C79G U139G G141C A147U | ≤ -4.2
C14A C38U | -1.31
C14G A19G G25A A30G A40U U56A C95A A142U | ≤ -4.2
C14U A22U A24G A97U U130G G136A | ≤ -4.2
U13G U53G U61A | ≤ -4.2
A16C A19G A20G U31G G48C U53A G65C G86U U130G | ≤ -4.2
U15C A41G C69A C87A U146G G152U | ≤ -4.2
U15A C36A A49U U55A A60C G68A C87G C118U G141C C149G | ≤ -4.2
U15G A19G C54U G62A C95U C103A G124U | ≤ -4.2
C14A G25A U53G G84C C87U G117C G124A | ≤ -4.2
C14U C87U U102C | -4.18
C14G A26U G58C A89U G117U A120C C125A | ≤ -4.2
C14U G71A C79A C85U C131A | ≤ -4.2
U15G A23C U44G U45G G46A G92C A138C | ≤ -4.2
U15G C69U C93A C96A G143U U151G | ≤ -4.2
C14U C36A A47C U55A C76G G86C | ≤ -4.2
C14G C32G U56A C85U C95G U104G | ≤ -4.2
C14G C36U U45G G59A C95U A97G A98U C125A U139G | -4.03
C14G U15A C54A A110C | ≤ -4.2

Variant | polymerase ribozyme fitness (log ratio)
U15C U31G U56A A73G C95U G100U A113C U144G | ≤ -4.2
U15G A47G U56A G68C G80A G88C C108U A119G A122C | ≤ -4.2
C14U A39C U45G C69U G70A C85A G100A | ≤ -4.2
C14G A30C U31A A41G G68A A73G G86A U146C | ≤ -4.2
C14G U31A C79U C85G U102G | ≤ -4.2
C14A U15G A49G G83A G94U G100A C105G | ≤ -4.2
C14U A28G C32G | ≤ -4.2
U15A A40C | 0.538
U15G A21C C38U A40G C57U C76G C99G G128A G140C | ≤ -4.2
A16C A20U A24U A40C C79A C99G U144G | ≤ -4.2
U15C G59U C95G A113G G136C | ≤ -4.2
C14U A30G A41U C69A C79A U82G G83C A106G A110G | ≤ -4.2
U15C A60U A64C C79U U90G C96U C123U | ≤ -4.2
U15G A22C A28G A89G G92A G136A G143C | ≤ -4.2
U15G A47C A89C C93U U127A G136U | ≤ -4.2
C14G G25U C36U G84U A89G A121G | ≤ -4.2
C14U G70C C76A C85G G126C G140A | ≤ -4.2
C14U A21C C35G G88C A107C G117A G126U | ≤ -4.2
U15A U82G C85G A110C | ≤ -4.2
C14G A19U G59C G81U C95U G141A | -3.74
U15G G88A | -4.08
C14U U31A A64C C75A C93G C103U | ≤ -4.2
U15G A20C G42U A52G C85U C93G C103A | ≤ -4.2
C14G C54U C85G A107G | ≤ -4.2

Variant | polymerase ribozyme fitness (log ratio)
C14U A17G C54G U56G A66U C95G A120G | ≤ -4.2
C14G G83U U109C A113U G124A | ≤ -4.2
C14U C114A C149G | ≤ -4.2
C14G A106C C118A C123U | -4.16
U15A A22G C36A C72U C85U C132U | ≤ -4.2
C14A U15C C43U A47U U55A G84U G117U C132U U135A U148G | ≤ -4.2
C14U A39G U53A C57U C108A | ≤ -4.2
C14A A49U A52C C69G G71A A73U G84A | ≤ -4.2
C14A A21C C27A C99U U145G | ≤ -4.2
C14G C54A C57G G84U U102C U139A A150C | ≤ -4.2
C14U A40C G65A G92C C105U | ≤ -4.2
C14A A89U G92C U109A G140C | ≤ -4.2
C14G C18U G92C | -2.89
U15G A40G C96U A97G G141A | -3.18
U15G A89C A119U | -0.888
C14U A29C C35U C51U U53G A122G | ≤ -4.2
C14U A20C U33A C93G C103G C118U | ≤ -4.2
A16C A24G U56C U77C G86A U104G U139A A142G | ≤ -4.2
C14A G50A C85U G126C | -4.17
U15G G46C C93A C95U | ≤ -4.2
U15G C72U C87A U134A A150C U151G | ≤ -4.2
C14G C54U C69U U77C G94A A120G C131U | ≤ -4.2
C14G C18U A49C A64C C93G C95G C99G C105G U135C A142G | ≤ -4.2
C14U C27A A40G C51A C57A G94C G100A C118A G126A | ≤ -4.2

Variant | polymerase ribozyme fitness (log ratio)
C14U A28U C51G A97G | ≤ -4.2
C14U A22G U44A A107C A138G G140U | ≤ -4.2
U15A A16U U31C G42A C87G A97G A98U | ≤ -4.2
U15A G92U C96G C105G C108G C118G G141A | ≤ -4.2
U15G A37C U53G G59C C76A A91G A97U U145A | ≤ -4.2
C14A U101G | -1.35
C14A A21U G50A G86U | ≤ -4.2
U15G G34U A107C A115U C118A U134C U135G A150G | ≤ -4.2
C14G A16U C36U A73G G84U U101A C125U U135C A138U | ≤ -4.2
C14A A20C C96U | -1.32
C14U A19C C76U C99U | -3.03
U15G A28C C36U A60U | ≤ -4.2
C14U G58C C85U A89G G136A | -3.44
U15G A40C A47G C51U C57G A91G C96G | ≤ -4.2
C14G A29G C57A A66G C85A G100U A115G C149G | ≤ -4.2
C14U C43U G84U | ≤ -4.2
C14A C27G A91C A115G | ≤ -4.2
U15G A39G U53A | -4.01
C14U C57G C85U | ≤ -4.2
C14G C35U C95U U101A | -3.82
C14G A40U A66U C149G | ≤ -4.2
C14A A17G G50C G83U U104A A115G A137C | ≤ -4.2
U15A A24G G25U C32A U56A G59C U82G C103G | ≤ -4.2
C14G A26C A37G C85U G124U C125U | ≤ -4.2

Variant | polymerase ribozyme fitness (log ratio)
U15A A37U G94C A137C G141C | ≤ -4.2
C14G G88A | ≤ -4.2
C14U A20U G58C G70U A97G U151G | ≤ -4.2
C14U A52G U55A G88C A137G G143A | ≤ -4.2
U15A A20G U44A A121C G136U | ≤ -4.2
C14A C36U U45C C87U C105A G133U | ≤ -4.2
U15C C93U A122U | -0.873
A16C A22G C27A C75G U78G C85U C95G U135C | ≤ -4.2
C14G A21U G59C G94A U101G A113C | ≤ -4.2
C14G C32U G94A C114G G136A | ≤ -4.2
U15G C85A A107C G141U | ≤ -4.2
C14A C57G G59A G133C U144G | ≤ -4.2
C14A A52G U55G C99U | -3.48
C14A U111C | ≤ -4.2
C14A G48C C57G C87G C131A U139C | ≤ -4.2
C14G U148G | ≤ -4.2
C14G C87U C149A | ≤ -4.2
C14U A73G C85U G86C G94U | ≤ -4.2
C14G C27U C87G G88U U90G | ≤ -4.2
C14A A28U G68U G92C C125U A137C A150C | ≤ -4.2
U15A G50U G86A C114U | -3.13
C14G C32G C57U U130G | ≤ -4.2
C14A A30U A49U U56A G62A C69U U139C U151G | ≤ -4.2
C14A A91C U104G | ≤ -4.2

Variant | polymerase ribozyme fitness (log ratio)
C14A A16U A30G U56A A66C A89U | ≤ -4.2
C14U A17G G83A C108U | ≤ -4.2
U15C C38U A49G C103G G141U | ≤ -4.2
C14A G84A C129G A138G | ≤ -4.2
C14G G74C C76G G84A C93G A107G | ≤ -4.2
C14G A30U A52G G71C G83C U134G | ≤ -4.2
C14G A37C | -3.05
C14G C57A C85U C99A C123U | -3.49
C14G G50U C76U G94C A113G G117C A142C U148G | ≤ -4.2
C14A A26C C32G A41G G88U C95G | ≤ -4.2
C14G A28U C85U G141U U146C | ≤ -4.2
C14U A21G G50U G59A A73U C93G G100U A107G U109C A142C A150U | ≤ -4.2
C14U A47G U90G C95G | ≤ -4.2
U15G A20U C54U C85G G94U U104C | -2.12
C14U U53C C85G U90G C96G G124U C132U | ≤ -4.2
U15G C27U U44G A52C C93U C114U A138U | ≤ -4.2
C14U U15A C57A C93U A110C | ≤ -4.2
C14G A97U C105U C114U C125U A142C | ≤ -4.2
U15A G25A G67C A73U U77A C87A G124U G143C | ≤ -4.2
C14A A41U C76G C87A G92C U144G | ≤ -4.2
U15C C36U A66U G74U C76G G141A | ≤ -4.2
C14G A23G C32A G94U C123G A147G | ≤ -4.2
U15G A26U C54G A60C C85G U111A A142C U146A | ≤ -4.2
C14G A24C G84A C93U A121U | ≤ -4.2

Variant | polymerase ribozyme fitness (log ratio)
C14A A16U G83A C93G C95U A98U C108G | ≤ -4.2
C14A G59C U78G C96U | ≤ -4.2
C14G A40C U55A G81C G126A U139G G140A | ≤ -4.2
U15A A20C C87G G124C | ≤ -4.2
U15C G86A C103G C105G A120G G133U A142U | ≤ -4.2
U15G A29C U56A G71U G83A C85A G128A | ≤ -4.2
C14A G58A G68A U78A G94A | ≤ -4.2
C14G A20U A26G A29U C57A C69U C76A G112A G141C | ≤ -4.2
U15G C93A U109C | ≤ -4.2
C14A G80A C85U C103G G117U G124U A142G | ≤ -4.2
C14G A28U C114U U146G | ≤ -4.2
C14G A26C C43A C76U G83C A113G C114U G133U | ≤ -4.2
U15C A23U A64U U82A C85U C125U C149U | ≤ -4.2
C14U C103G C149A | ≤ -4.2
U15G U45A G48C U61A C76A A89U C93U A97C | ≤ -4.2
U15G G42A C75A G83U A122U G128A | ≤ -4.2
C14U A37C C69A G88A U90A | ≤ -4.2
C14A G25U A64C G83C A89U A121G | ≤ -4.2
C14U C85A G140A | ≤ -4.2
C14G U82C | -3.65
C14A C76A A89C U90G C95U A107U | ≤ -4.2
C14A U31A U55A G92A C125U A142U | ≤ -4.2
C14G C32U U33A G71A G92U G136A G141C | ≤ -4.2
